# Source: the supplement of paper PMC4166925
# ± gives the standard deviation of the averaged measurements. Whole data set: some 33,000 sequences, median “E-score (dimensionless, -0.5 to 0.5)” near -0.046, cut for the highest 2% near 0.36. This is one part of the list.
# Tested on: T1, SpTbr T-box DNA-binding domain (GST fusion)
# T1 sequence: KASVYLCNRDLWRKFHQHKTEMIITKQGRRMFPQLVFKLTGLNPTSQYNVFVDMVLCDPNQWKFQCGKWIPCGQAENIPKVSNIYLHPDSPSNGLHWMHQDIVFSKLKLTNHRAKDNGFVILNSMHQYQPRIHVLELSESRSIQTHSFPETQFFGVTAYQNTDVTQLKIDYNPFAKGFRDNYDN
# Experiment: PBM E-score of 8-mer (E-score (dimensionless, -0.5 to 0.5)); Tbr is Tbrain of the sea star Patiria miniata (Pm) or the sea urchin Strongylocentrotus purpuratus (Sp); higher = stronger binding preference; most listed sequences are background and not binding sites
# Conditions: the construct has about 5 more residues each side
# Procedure, shortened: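 Expression of GST-fused Tbr T-box DNA-binding domains, each holding the full T-box plus roughly five flanking residues, was carried out in BL21 E. coli at 20 °C, with purification by glutathione affinity chromatography. Universal Agilent arrays made double-stranded by primer extension were incubated with the protein at 200 nM in PBS (pH 7.5), then scanned and quantified. All ungapped 8-mers were scored from probe intensities, and each received an enrichment E-score from the Universal PBM Analysis Suite, averaged over duplicate arrays.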
row,Sequence,PBM E-score of 8-mer
1,GTCAACAC,0.434 ± 0.0065
2,ACGGCTCG,0.112 ± 0.05
3,CCATCGTC,0.152 ± 0.045
4,CACTGGTA,0.0119 ± 0.0091
5,GGTACACC,0.0483 ± 0.068
6,AATAGAAT,-0.0803 ± 0.073
7,ATCACTAG,0.0084 ± 0.021
8,GTACGCAC,0.155 ± 0.046
9,GAGTCCAA,-0.0956 ± 0.078
10,CCAGAACG,-0.0022 ± 0.05
11,ACCGGTCA,-0.0138 ± 0.059
12,ATCGCCCG,0.0885 ± 0.019
13,AGCAGGCT,-0.112 ± 0.021
14,CTGACTTA,-0.282 ± 0.053
15,ACTTCTCT,0.0471 ± 0.035
16,AATTGCCC,-0.0475 ± 0.046
17,CTTACATC,-0.0524 ± 0.031
18,TACCGTGA,0.0752 ± 0.024
19,GAGACGGA,-0.0933 ± 0.059
20,ACTGTCAA,0.183 ± 0.035
21,ATAGAGCG,-0.0811 ± 0.011
22,CTTGAGTC,-0.27 ± 0.028

row,Sequence,PBM E-score of 8-mer
1,ATGGTGCA,-0.0269 ± 0.053
2,CACGGGTC,0.0618 ± 0.0081
3,CGCCCCTC,-0.0184 ± 0.037
4,GGATTCCA,-0.0549 ± 0.074
5,GACGGTAC,-0.0628 ± 0.0078
6,CACCATGA,0.224 ± 0.035
7,ATCACATA,0.251 ± 0.055
8,CAGATCTA,-0.116 ± 0.053
9,GATGAGCC,-0.183 ± 0.027
10,GGCTTCCA,-0.277 ± 0.0097
11,ATGATAAC,0.092 ± 0.059
12,ATGCAACG,-0.179 ± 0.061
13,AGGTATGA,0.0596 ± 0.1
14,ACAACGTC,0.0487 ± 0.035
15,ATGACCGC,-0.276 ± 0.039
16,CTTTCCGA,-0.0285 ± 0.011
17,CGCGAACA,0.36 ± 0.019
18,AATTGCTC,0.0817 ± 0.052
19,ACTGATCA,-0.0788 ± 0.045
20,CCGCTTTA,-0.0876 ± 0.016
21,GCCCGAAA,-0.0313 ± 0.068
22,ATAGATTA,-0.192 ± 0.067

row,Sequence,PBM E-score of 8-mer
1,CATCGCAG,0.109 ± 0.046
2,GCCGTCCA,-0.141 ± 0.026
3,AGACGCTG,-0.00072 ± 0.027
4,GGGTGTTA,0.463 ± 0.0026
5,GACGGAGC,-0.152 ± 0.03
6,ACAATCAA,-0.00286 ± 0.085
7,CCCTAGCG,-0.169 ± 0.041
8,AACGACAA,0.174 ± 0.029
9,AAATGATG,-0.136 ± 0.032
10,CACATTCG,0.32 ± 0.027
11,AGTCCACG,0.0351 ± 0.016
12,ATTACCGA,-0.0478 ± 0.011
13,ATCGGTGA,0.0276 ± 0.0038
14,AGATTATC,0.107 ± 0.025
15,AATGCTCA,-0.103 ± 0.034
16,AGCGAAGG,0.0517 ± 0.061
17,CCGTTATC,0.12 ± 0.073
18,CTCCCTAA,-0.144 ± 0.072
19,AGAAATGA,-0.0865 ± 0.051
20,TACCAGAA,-0.0225 ± 0.033
21,ATGACCCC,-0.166 ± 0.0049
22,CGTTCGAC,0.132 ± 0.0074

row,Sequence,PBM E-score of 8-mer
1,ACCGACTC,-0.0639 ± 0.11
2,CTATTACC,-0.287 ± 0.022
3,ACGGGTAC,0.0182 ± 0.026
4,GGGCTGAC,-0.186 ± 0.038
5,AAGTAGAG,-0.0619 ± 0.085
6,TAAAATGA,-0.0731 ± 0.027
7,CCAGTGGC,0.0355 ± 0.044
8,AAGGTCGG,-0.0921 ± 0.015
9,AGCTTCTA,-0.193 ± 0.036
10,AATAAGTG,0.227 ± 0.081
11,ACACATCT,0.31 ± 0.029
12,CCCACTAA,-0.0685 ± 0.092
13,CGTGGCAC,0.203 ± 0.018
14,CAGAGTCC,-0.179 ± 0.019
15,CCCAGCTC,-0.146 ± 0.026
16,GAATCCTC,-0.138 ± 0.017
17,CCCTAGCC,-0.176 ± 0.018
18,CTTTAGGC,0.0616 ± 0.087
19,ACGTACAA,0.0169 ± 0.00054
20,GCCCGGCA,0.0357 ± 0.012
21,ATGACGCA,0.0994 ± 0.041
22,CTCAACGA,-0.0974 ± 0.069

row,Sequence,PBM E-score of 8-mer
1,ATGGGAGG,-0.265 ± 0.017
2,GCTTTCCC,0.15 ± 0.061
3,CTTGTACC,-0.197 ± 0.037
4,CGGGTGTA,0.134 ± 0.068
5,TACAGCGA,-0.193 ± 0.038
6,AAATGGCT,-0.1719 ± 0.00018
7,ATTCAATG,-0.228 ± 0.079
8,AAGGTTAC,-0.189 ± 0.047
9,ATCGTCTC,-0.134 ± 0.063
10,ACTACTAC,-0.0581 ± 0.073
11,TGCATGCA,-0.274 ± 0.17
12,AGCTCGTA,-0.0781 ± 0.067
13,CCAGCCAA,0.0172 ± 0.056
14,AGCTCACT,-0.118 ± 0.0042
15,AGTTCGTG,0.113 ± 0.0049
16,CGTTGCTA,0.115 ± 0.018
17,CTTAACGA,0.0844 ± 0.03
18,CGTGTTGA,0.3014 ± 0.0019
19,AGCTATCG,0.068 ± 0.035
20,CGCGGCAA,0.188 ± 0.07
21,GTACTTGA,0.0232 ± 0.044
22,CCTCGTAG,-0.0741 ± 0.019
